Consider 172 sequences from article PMC10668032.

The list shows a part of the results. At the low end of the ranking the order means little.

In this experiment the target is SIX1 homeodomain (reference allele) (UniProt Q15475). Nature of the experiment: universal protein binding microarray. As to conditions: Universal all-10-mer PBM (8x60K, AMADID 030236), 300 nM GST-tagged protein, Alexa Fluor 488 anti-GST; buffer, salt, pH and temperature not stated; high values mean tight binding; most listed sequences are background and not binding sites; double strand, one strand shown.
As for GGCTCCGA, the binding signal was -0.0025 E-score. As for ACTGGGCG, the binding signal is -0.0474 E-score. The figure for CCTTGCCA is -0.145 E-score; for TTATCAAA it is -0.0696 E-score. The figure for GATGCTAA is -0.0756 E-score; for CTGGACAG it is -0.2 E-score. Then AGGATGAG, with 0.123 E-score; and ATGTTTGC, with -0.313 E-score; and ATCTCTGA, with 0.154 E-score. Take CGGATCCA: the binding signal came to 0.406 E-score.

Turning to ATTGGTAC, the binding signal is -0.0573 E-score. Then ACCCCGGA, with 0.23 E-score; and TAGCGCTA, with 0.025 E-score; and CAATCATG, with 0.0451 E-score.

Take AGATAAAG: the binding signal was found to be 0.183 E-score.

For AAGTCAAA, the binding signal is -0.302 E-score. CCCCACCA: the binding signal is 0.0103 E-score. Consider GGACGGTA, for which the binding signal was -0.0189 E-score.

With GATCTGAA, the binding signal was determined as 0.143 E-score. Then AGTAACCG, with -0.145 E-score. The figure for GAAATGAC is -0.207 E-score; for TAAACTTA it is -0.0993 E-score; for GTGCTGTA it is 0.0699 E-score. Turning to ATAACAAT, the binding signal was 0.0525 E-score. Then GATGCGTA, with 0.125 E-score; and GTTTGCAA, with -0.047 E-score; and AGACACCA, with 0.329 E-score.

In the case of TGCGCCCA, the binding signal is -0.184 E-score. Then ATTTCAGG, with 0.0155 E-score; and GGTTAGAC, with -0.0936 E-score; and TCTCATAA, with 0.161 E-score. Consider ACTCCAGA, for which the binding signal was -0.059 E-score. For the sequence TACTAAGA, the binding signal came to 0.103 E-score. The figure for ATAAAAAT is -0.0378 E-score; for CACCTACA it is 0.0152 E-score. GACGACAC: the binding signal stood at 0.164 E-score.

On to ATTATCGA, for which the binding signal came to 0.0731 E-score. As for GGTCGTCA, the binding signal was -0.147 E-score.

Turning to GGGCACAA, the binding signal is -0.0768 E-score. As to CATCTGAA, the binding signal came out at 0.0746 E-score. The figure for TACTCAGA is 0.0519 E-score. As to TAGTCCAA, the binding signal is -0.232 E-score. In the case of AAAGTGCC, the binding signal is -0.246 E-score. Then ATAATAAT, with 0.192 E-score; and ACGACCGC, with -0.289 E-score. The figure for AGGCGAGG is 0.0995 E-score; for AATGACGT it is -0.0872 E-score; for AGACGCCC it is 0.125 E-score. Then AACTCTCA, with -0.271 E-score. As for CGCATTTA, the binding signal was -0.0481 E-score. The figure for TACAGGAA is 0.05 E-score; for CGCAGAGA it is 0.0859 E-score. For GAGTACTC, the binding signal is -0.0238 E-score. The figure for AGGGCGAT is 0.284 E-score; for ATTGACGG it is -0.122 E-score. With ATGGAACC, the binding signal is -0.121 E-score. Then ACGAGTGG, with 0.001 E-score; and AAGCAAGT, with -0.241 E-score.

For AATAATGG, the binding signal was -0.158 E-score. TCTGTCCA: the binding signal was -0.0148 E-score. The figure for ACTTTCGG is -0.174 E-score; for GCGGCTAA it is -0.0411 E-score; for AGCGCGCA it is -0.0529 E-score.

Take GAGGTATA: the binding signal is 0.365 E-score. As for ACGTGGCA, the binding signal was -0.331 E-score. For the sequence CGACAACG, the binding signal is -0.208 E-score. On to CGGTTAAG, for which the binding signal was -0.281 E-score.

Take CTGCTATA: the binding signal turned out to be 0.194 E-score. Then CGACCTGA, with -0.0669 E-score; and AGTAAACG, with -0.0653 E-score. The figure for CGTGGCGA is -0.0946 E-score; for ACGCAATA it is 0.152 E-score; for ATCTGACC it is 0.282 E-score. The figure for GCGCGTAA is -0.137 E-score; for AGACCCTA it is -0.0278 E-score; for TAAGGCGA it is -0.097 E-score. Regarding ACAGCAGG, the binding signal stood at 0.0406 E-score.

Turning to AAGAGGAA, the binding signal is -0.215 E-score. Then AATTTTCT, with -0.31 E-score.

In the case of ATTATCTG, the binding signal is 0.138 E-score. Regarding ACATGTGA, the binding signal was -0.161 E-score. Regarding GACTACGC, the binding signal was -0.243 E-score. The figure for GCGCGTAC is -0.0697 E-score; for AACGCACG it is -0.195 E-score; for AATTCTAT it is -0.17 E-score. Regarding AAGAATTG, the binding signal is -0.235 E-score. Regarding AGACTAAC, the binding signal was -0.254 E-score. The figure for AACACTGA is -0.0187 E-score; for GTGTTGAA it is 0.0888 E-score. The figure for GAAGTCGC is -0.241 E-score; for AAGGACTT it is -0.199 E-score. CGCACCCA: the binding signal is -0.0395 E-score. As to CGTCGATC, the binding signal turned out to be 0.157 E-score. Regarding CGTGGAAG, the binding signal was -0.0521 E-score. The figure for GGAAACCC is -0.0219 E-score; for TGCGAAAA it is -0.161 E-score. The figure for ATTCCTTA is -0.244 E-score. The figure for GAAAAACC is -0.12 E-score. For CCTCAAGC, the binding signal was -0.104 E-score. Then ACTCCTGA, with 0.09 E-score; and ACGATATC, with 0.454 E-score. For CAAGTCTA, the binding signal is -0.168 E-score. The figure for AAGGCACA is -0.289 E-score; for GATTTGTA it is -0.125 E-score; for GGTTGAAC it is -0.1 E-score.

Take CTCGGGTA: the binding signal was found to be 0.08 E-score.

As to GTTCCTAA, the binding signal was -0.084 E-score. Regarding CTATTCGC, the binding signal was -0.0657 E-score. The figure for AGGATGTA is 0.072 E-score; for CTGTTTGA it is -0.0676 E-score; for CAACTAGC it is -0.0216 E-score. For the sequence AAGGTAAC, the binding signal was -0.0708 E-score. The figure for CGGTTGGA is -0.0116 E-score; for ATTGTACC it is 0.0609 E-score.

Consider AAGTCAAG, for which the binding signal is -0.204 E-score.

For the sequence GCTAGAAA, the binding signal is 0.00582 E-score. As for CTGAGTCC, the binding signal was -0.252 E-score.

For GAACGTCC, the binding signal is -0.137 E-score. The figure for ACCCCTGA is 0.187 E-score; for AGAACATG it is -0.012 E-score. Then CCACCTAC, with -0.125 E-score.

For AATCGAAG, the binding signal was -0.186 E-score. CCAGACCG: the binding signal stood at 0.0478 E-score. For the sequence GCAAGCAA, the binding signal was -0.203 E-score. In the case of CCAAACGG, the binding signal was -0.124 E-score.

Turning to ACCTGACA, the binding signal was determined as 0.188 E-score. Then CCTAGTCC, with -0.171 E-score. The figure for GACGTATA is 0.213 E-score; for CTTGGGGC it is 0.0853 E-score. Then GGAAATTA, with -0.105 E-score; and CTGAAGAC, with -0.121 E-score; and ATCCTGTC, with 0.228 E-score. On to AACTTATC, for which the binding signal is -0.00993 E-score. Then GCTTCTGA, with 0.0246 E-score; and AATTCGGT, with -0.00995 E-score. AAATGGTT: the binding signal is -0.246 E-score.

AGACGAAC: the binding signal was -0.12 E-score.

GTACATGA: the binding signal worked out at 0.00487 E-score. Then ATATATAA, with 0.298 E-score. Then GCTCAGGA, with -0.00184 E-score; and ATCGATAG, with 0.275 E-score; and GAATTCCA, with -0.0335 E-score. As for ACAAGCAT, the binding signal was -0.073 E-score. The figure for ATCCAACA is 0.293 E-score; for AGGGTAAA it is 0.0458 E-score. Then AAATAGTT, with -0.365 E-score. The figure for ATAGCAGG is 0.292 E-score; for AGTCGCGA it is 0.0471 E-score; for AGCACGGA it is -0.0182 E-score.

As for AATCCAAC, the binding signal was found to be 0.155 E-score. Consider CTGCCTAC, for which the binding signal was -0.0373 E-score. Then AAGCCGCG, with -0.0524 E-score. Then CTAACGCA, with 0.0757 E-score; and CATGAGAG, with -0.0182 E-score. Consider GAACGCTA, for which the binding signal is -0.167 E-score. AGATTCGG: the binding signal is -0.0448 E-score.

As for ACCCCCCA, the binding signal worked out at 0.131 E-score.

ATTAGAAT: the binding signal came to 0.0313 E-score.

For the sequence CACCACCC, the binding signal worked out at 0.0562 E-score. For the sequence ATTAAAGA, the binding signal was -0.0462 E-score.

Turning to GTCTCGCA, the binding signal is -0.0313 E-score. AGGTTTGC: the binding signal was -0.129 E-score.

In the case of GCCATCCC, the binding signal amounted to 0.12 E-score.

With AATGCCCA, the binding signal was -0.00368 E-score. The figure for CCGATGCC is 0.0988 E-score; for CTGGAAGA it is -0.0242 E-score; for CGGAGCTA it is -0.0612 E-score. The figure for ATTACGAG is 0.0743 E-score. On to AATTGCGA, for which the binding signal was -0.142 E-score. Then CTGTGCGC, with -0.121 E-score; and CTGAAGAA, with -0.307 E-score. As for AATGTCTG, the binding signal is -0.112 E-score.
